According to paper PMC10855866, “Structural Analysis of Breast-Milk αS1-Casein: An α-Helical Conformation Is Required for TLR4-Stimulation” (International Journal of Molecular Sciences, 2024):
These are yes or no findings as the source states them, for the method shown. Some binding calls cover weakened binding; strength is not graded here.

Amino acid sequences for entries named in this document (tags omitted). Residues count along the entry.
UniProt O00206, residues 24-839: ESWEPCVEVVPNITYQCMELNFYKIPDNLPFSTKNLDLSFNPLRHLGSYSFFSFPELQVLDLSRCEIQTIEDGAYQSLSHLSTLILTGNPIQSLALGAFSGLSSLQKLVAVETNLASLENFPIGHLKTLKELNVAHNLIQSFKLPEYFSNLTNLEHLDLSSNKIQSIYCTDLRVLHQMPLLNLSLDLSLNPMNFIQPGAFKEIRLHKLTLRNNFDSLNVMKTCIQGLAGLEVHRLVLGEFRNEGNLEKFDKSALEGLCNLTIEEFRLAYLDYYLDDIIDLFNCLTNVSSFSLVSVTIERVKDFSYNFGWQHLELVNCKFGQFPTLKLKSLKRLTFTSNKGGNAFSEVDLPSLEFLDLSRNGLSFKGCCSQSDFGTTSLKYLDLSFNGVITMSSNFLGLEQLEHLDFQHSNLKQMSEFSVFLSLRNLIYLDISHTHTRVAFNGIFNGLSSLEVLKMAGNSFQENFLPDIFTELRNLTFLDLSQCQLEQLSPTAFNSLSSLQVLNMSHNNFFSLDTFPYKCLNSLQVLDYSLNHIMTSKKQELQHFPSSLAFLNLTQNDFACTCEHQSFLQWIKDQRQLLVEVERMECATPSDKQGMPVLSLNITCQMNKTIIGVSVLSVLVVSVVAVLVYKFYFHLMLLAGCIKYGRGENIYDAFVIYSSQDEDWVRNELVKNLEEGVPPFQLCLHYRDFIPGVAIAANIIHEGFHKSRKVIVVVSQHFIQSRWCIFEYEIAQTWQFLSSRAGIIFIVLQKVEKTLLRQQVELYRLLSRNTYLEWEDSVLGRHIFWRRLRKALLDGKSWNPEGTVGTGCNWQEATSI

How the values were obtained:
[1] = target: Toll-like receptor 4 (TLR4) (UniProt O00206); experiment: flow cytometry on cells; TLR4+ cells (HEK293 transfected with TLR4/MD2/CD14) and TLR4- cells incubated 24 h with 500 nM αS1-casein or a truncated variant; detected with murine anti-His6 IgG and Dylight633 anti-murine IgG; only the binder purified
[2] = target: recombinant human αS1-casein (human) (UniProt P47710); experiment: SDS-PAGE under weak and strong denaturing conditions; αS1-casein 50 µM in 0.2% SDS (20 min, RT), 2% SDS (20 min, RT) or 2% SDS with 0 to 100 mM DTT (20 min, 95 °C); 15% gel, silver stain; both purified

| Binder | binding [1] | binding [2] |
| --- | --- | --- |
| recombinant human αS1-casein (natural protein, UniProt P47710 16-185, looked up, human αS1-casein (CSN1S1), from plasmid pET TS001; C1 and C2, made from the same plasmid, begin at residue 16 and N1-N4 end at 185, so it probably lacks the signal peptide (1-15); Not phosphorylated (made in E. coli); also called full-length αS1-casein; full-size αS1-casein; source: E. coli, purified (NTA column chromatography); not shown: His6, N-terminal, kept) RPKLPLRYPERLQNPSESSEPIPLESREEYMNGMNRQRNILREKQTDEIKDTRNESTQNCVVAEPEKMESSISSSSEEMSLSKCAEQFCRLNEYNQLQLQAAHAQEQIRRMNENSHVQVPFQQLNQLAAYPYAVWYYPQIMQYVPFPPFSDISNPTAHENYEKNNVMLQW | binds | no binding (condition: 2% SDS, 100 mM DTT, 20 min, 95 °C) |
| αS1-casein truncated variant N4 (domain or fragment, human, UniProt P47710 93-185, looked up) EMSLSKCAEQFCRLNEYNQLQLQAAHAQEQIRRMNENSHVQVPFQQLNQLAAYPYAVWYYPQIMQYVPFPPFSDISNPTAHENYEKNNVMLQW | no binding (tested: 500 nM) | – |

Now from value to binder, other results behind:

| binding [1] | Binder | binding [2] |
| --- | --- | --- |
| binds | αS1-casein truncated variant N2 (domain or fragment, human, UniProt P47710 57-185, looked up) REKQTDEIKDTRNESTQNCVVAEPEKMESSISSSSEEMSLSKCAEQFCRLNEYNQLQLQAAHAQEQIRRMNENSHVQVPFQQLNQLAAYPYAVWYYPQIMQYVPFPPFSDISNPTAHENYEKNNVMLQW | – |
| binds | αS1-casein truncated variant N1 (domain or fragment, human, UniProt P47710 35-185, looked up) EPIPLESREEYMNGMNRQRNILREKQTDEIKDTRNESTQNCVVAEPEKMESSISSSSEEMSLSKCAEQFCRLNEYNQLQLQAAHAQEQIRRMNENSHVQVPFQQLNQLAAYPYAVWYYPQIMQYVPFPPFSDISNPTAHENYEKNNVMLQW | – |
